Experimental data published in PMC6919601, “Identification of Plasmodium dipeptidyl aminopeptidase allosteric inhibitors by high throughput screening” (PLoS ONE, 2019).
“And” between values parts separate entries of the source, which are not always exact repeats. Identical values can stand only once. About 230 (0.21%) of roughly 110,000 compounds showed an effect of 50% or more. The list shows a part of the results.

target: DPAP1 (Plasmodium falciparum, UniProt Q8IIJ9); test: primary screen, percent inhibition; read by cleavage of a fluorogenic dipeptide substrate; higher = more effect of the substance; design: species or system P. falciparum D10 trophozoite lysates; single well
Sequence (Q8IIJ9 whole entry, looked up): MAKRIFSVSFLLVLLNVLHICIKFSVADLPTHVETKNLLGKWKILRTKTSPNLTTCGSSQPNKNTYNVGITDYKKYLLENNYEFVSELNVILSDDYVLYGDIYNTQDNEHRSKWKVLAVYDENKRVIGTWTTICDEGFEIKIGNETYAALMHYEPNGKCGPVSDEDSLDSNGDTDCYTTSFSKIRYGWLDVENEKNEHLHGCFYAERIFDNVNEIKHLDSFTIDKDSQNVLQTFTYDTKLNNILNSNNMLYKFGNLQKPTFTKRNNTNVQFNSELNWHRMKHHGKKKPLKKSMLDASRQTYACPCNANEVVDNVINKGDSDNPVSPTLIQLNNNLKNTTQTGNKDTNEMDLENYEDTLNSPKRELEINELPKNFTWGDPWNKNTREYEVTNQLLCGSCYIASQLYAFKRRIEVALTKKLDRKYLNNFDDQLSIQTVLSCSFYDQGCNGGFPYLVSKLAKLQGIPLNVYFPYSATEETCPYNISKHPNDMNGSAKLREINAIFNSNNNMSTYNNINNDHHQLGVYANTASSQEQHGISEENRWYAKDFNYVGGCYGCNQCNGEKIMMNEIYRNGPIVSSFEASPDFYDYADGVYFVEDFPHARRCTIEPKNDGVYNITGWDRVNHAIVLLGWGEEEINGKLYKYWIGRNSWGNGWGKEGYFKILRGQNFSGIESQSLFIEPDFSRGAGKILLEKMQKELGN
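Further: 30 min substrate incubation versus DMSO and 10 µM JCP410 controls.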

Row | SMILES | % Inhibition @ 10 uM
1 | Cc1ccccc1C1Oc2ccccc2C2CC(c3ccccc3O)=NN21 (stereo not shown) | -1.68%
2 | O=C(C1CCC(Cn2c(=O)[nH]c3ccsc3c2=O)CC1)N1CC=C(c2ccccc2)CC1 (stereo not shown) | -4.06%
3 | CCCCCCNc1nc(-c2ccc(OC)cc2)c(CCC(=O)O)s1 | -0.671%
4 | CN(Cc1ccccc1)S(=O)(=O)c1ccc(S(=O)(=O)N2CCN(CCC#N)CC2)cc1 | -1.82%
5 | N=C(CC1CC(=O)NC(=O)C1)C1=C(O)CCCC1=O | -1.06%
6 | Cn1c(C(=O)NCCc2ccccc2)cc2oc3ccccc3c21 | 3%
7 | O=C(CN1CC(=O)N2CCCC2C1=O)NCc1ccc2c(c1)OCO2 (stereo not shown) | -3.49%
8 | O=C(C1=C(O)C(=O)N(CCc2c[nH]cn2)C1c1ccc(Cl)cc1)c1ccc(F)cc1 (stereo not shown) | 4.31%
9 | Cc1ccc(-c2nnc3n2N=C(c2ccc(O)c(O)c2)CS3)cc1 | -1.17%
10 | Cc1ccc2nc(NC(=O)C3CCCN(S(=O)(=O)c4ccc5nc(O)ccc5c4)C3)sc2c1 (stereo not shown) | 3.77%
11 | O=[N+]([O-])c1ccc(CN2CCC(O)CC2)cc1 | -3.65%
12 | Cc1ccc2oc(=O)c3cnn(CC(=O)Nc4cc(-c5cccc(Cl)c5)no4)c3c2c1 | -5.25%
13 | Cc1nc2ccccc2c2oc(C(=O)NCCCN3CCN(Cc4ccccc4)CC3)cc12 | -0.0115%
14 | O=C(Cn1c(=O)n(CCc2ccccc2)c(=O)c2sc3ccccc3c21)NCc1ccccc1 | -6.52%
15 | COc1ccc(CCNC2=C(Cl)C(=O)N(CCc3ccc(OC)c(OC)c3)C2=O)cc1OC | 1.96%
16 | CCOc1ccccc1C1C(C(=O)OC)=C(C)N=C2C1=C(O)c1ccccc12 (stereo not shown) | -3.14%
17 | COc1ccc(-c2cc(C(F)F)n3ncc(C(=O)N4CCN(C(=O)c5ccco5)CC4)c3n2)cc1 | 2.46%
18 | CCN(CC)S(=O)(=O)c1ccc(-c2csc(Nc3ccc(C)cc3)n2)cc1 | -3.79%
19 | CC1CC(C)CN(CCCn2cnc3c4cc(Cl)ccc4nc-3c2O)C1 (stereo not shown) | -0.235%
20 | CN(C)C(=O)Nc1ccc(Cl)c(Cl)c1 | -5.51%
21 | COC(=O)c1cc(S(=O)(=O)NCc2cc(OC)c(OC)c(OC)c2)cn1C | 0.776%
22 | CC(C)(C)C(=O)Nc1sc2c(c1C#N)CCCCC2 | 2.69%
23 | CCOc1ccc(C(=O)N2CC(C)CC(C)C2)cc1 (stereo not shown) | 0.823%
24 | CCOC(=O)C1CCN(Cc2cc(OC)c(OC)c(OC)c2)CC1 | 4.67%
25 | O=C1S/C(=C\c2cccnc2)C(=O)N1c1ccc(Cl)cc1 | 1.96%

Row | SMILES | % Inhibition @ 10 uM
26 | CCOc1cc(/C=C2/NC(=O)N(Cc3ccc(F)cc3)C2=O)c(Br)cc1OC | 4.53%
27 | CC1CCCCN1Cc1nc2c(c(=O)n(C)c(=O)n2C)n1Cc1ccc(F)cc1 (stereo not shown) | -0.499%
28 | COC(=O)C1=C(C)N(CCC2=CCCCC2)C(=O)/C1=C\c1ccccc1O | 3.54%
29 | CN(C)CCCNC(=O)c1ccc(-c2nn(C)c(=O)c3ccccc23)cc1 | -3.23%
30 | Cc1ccc(NC(=O)c2ccccc2OCC(=O)Nc2cccc(Cl)c2C)nc1 | 5.08%
31 | CCN1CCN(C2CCC(c3ccccc3)CC2)CC1 (stereo not shown) | 1.88%
32 | CCOC(=O)c1sc(C)nc1C1CCN(C(=O)OCC)CC1 | -1.03%
33 | CCCNC(=O)/C(=C/c1cn(S(=O)(=O)N(C)C)c2ccccc12)NC(=O)c1ccccc1 | -0.0235%
34 | O=C1S/C(=C\c2ccco2)C(=O)N1c1cccc(Cl)c1 | -0.318%
35 | CCOc1ccc(S(=O)(=O)Nc2ccccc2C(=O)NC2CCCCC2)cc1 | -0.884%
36 | COc1ccc(CNC(=O)c2cc(-c3ccco3)on2)cc1 | 0.628%
37 | CCOC(=O)c1c(NC(=O)/C(C#N)=C\c2ccccc2F)sc2c1CCCC2 | 3.95%
38 | CCOc1ccc(NS(=O)(=O)c2ccc(NC(=O)Nc3ccccc3)cc2)cc1 | -7.17%
39 | CC(=O)N/C(=C\c1ccccc1)C(=O)Nc1cc(C)ccc1C | -0.446%
40 | COc1ccc(C=O)cc1Cn1c(C)cc(C)c(C#N)c1=O | -3.94%
41 | C/C(CS(=O)(=O)c1ccc(Cl)cc1)=N/NC(N)=S | 1.12%
42 | CCOC(=O)c1c(C)[nH]c(C)c1C(C)=O | 1.63%
43 | Cc1cc(C)c(C(=O)/C=C/c2ccco2)c(O)n1 | -0.591%
44 | Cc1sc(NC(=O)Cc2ccccc2)c(C(N)=O)c1C | 16.1%
45 | O=C(O)CCCC(=O)Nc1ccc(Cl)cc1 | -1.38%
46 | Cn1c(=O)c2ncn(CC(=O)Nc3ccccc3O)c2n(C)c1=O | 1.57% and 1.88%
47 | Cc1ccc2c(CN3CCN(C(=O)c4ccco4)CC3)cc(=O)oc2c1 | 1.67%
48 | CC(=O)Nc1cccc(NC(=O)CSc2nc(-c3cccs3)cc(-c3cccs3)c2C#N)c1 | 5.94%
49 | CCOC(=O)C1=C(CN2CCN(C(=O)c3ccco3)CC2)NC(=O)NC1c1ccc(OC(C)C)cc1 (stereo not shown) | -4.69%
50 | CC(C)C1CC(CCN2CCCCC2)(c2ccccc2)CCO1 (stereo not shown) | -1.85%

Row | SMILES | % Inhibition @ 10 uM
51 | CCC(Nc1ccccc1N)=C1C(=O)N(C)C(=O)N(C)C1=O | -0.105%
52 | CCOC(=O)CC1=CSC2=NCCN12 | 2%
53 | N#Cc1c(N2C(=O)C3C4c5ccccc5C(c5ccccc54)C3C2=O)sc2c1CCCC2 (stereo not shown) | -1.19%
54 | CC(C)(C)NC(=O)CC(CC(=O)O)c1ccccc1 (stereo not shown) | 4.08%
55 | CC1CCCCN1C(=O)Cn1cc(C(=O)C(F)(F)F)c2ccccc21 (stereo not shown) | 1.83%
56 | CC1=CCC(COC(=O)CN2CCCCC2)CC1 (stereo not shown) | 5.77%
57 | COc1ccc(NC(=O)COc2ccc(C(=O)NC3CCCCC3)cc2)cc1 | -5.92%
58 | COC(=O)c1cc2oc3ccccc3c2n1CC(=O)NCc1ccco1 | -7.02%
59 | CC1CCC(C(=O)NC(Cc2c[nH]c3ccccc23)C(=O)NCc2cccnc2)CC1 (stereo not shown) | -4.06%
60 | Cc1[nH]c2ccccc2c1C(NS(=O)(=O)c1ccccc1)C(Cl)(Cl)Cl (stereo not shown) | -0.597%
61 | CCOC(=O)N1CCC(NCCc2ccc(Cl)cc2Cl)CC1 | -1.5%
62 | CN1CCC(N(C)Cc2cccc(Br)c2)CC1 | 1.4%
63 | Cc1cc(/C=C2/C(=N)N3C(=NC2=O)SN=C3S(C)(=O)=O)c(C)n1-c1cccc(C(F)(F)F)c1 | -1.58%
64 | CCOCCCNC(=O)/C(=C/c1cccnc1)NC(=O)c1ccccc1 | 0.27%
65 | COc1ccc(C(=O)c2sc3nc(C)c(C)c(C)c3c2N)cc1OC | 4.28%
66 | CCc1ccc(-c2c(C)sc(NC(=O)c3ccnn3C)c2C#N)cc1 | 1.43%
67 | Cc1ccc(CNCc2cccn2-c2c(C(=O)O)cnn2-c2ccccc2)cc1 | 7.75%
68 | CC(=O)Nc1ccc(S(=O)(=O)n2ccnc2)cc1 | -4.43%
69 | Nc1c(C(=O)Nc2nccs2)sc2nc(-c3cccs3)cc(C(F)(F)F)c12 | 76.8%
70 | CC1(C)CC(=O)N(Cc2ccccc2)C(=O)C1 | -1.52%
71 | Cc1cc2ccccc2n1-c1ccc(C(=O)N2CCCCCC2)s1 | 3.12%
72 | CCOC(=O)C1=C(C)N=c2s/c(=C\c3cc(Cl)cc(Cl)c3O)c(=O)n2C1c1ccccc1Cl (stereo not shown) | 43.8%
73 | CCOc1ccc2nc3sc(C(=O)Nc4ccc(F)cc4)c(N)c3cc2c1 | 17.4%
74 | O=C(COc1ccc2cc(Br)ccc2c1)N1N=C(C(F)F)CC1(O)C(F)F (stereo not shown) | 1.57%
75 | CC(=O)NCC1OCCc2ccccc21 (stereo not shown) | -1.97%

Row | SMILES | % Inhibition @ 10 uM
76 | CCCCNc1nc2c(-c3ccccc3)nnn2c2ccccc12 | -8.42%
77 | COc1ccc(C(=O)OCC2CC(c3ccccc3)=NO2)cc1OC (stereo not shown) | 1.91%
78 | Cc1nc(C(=N)NOC(=O)Cc2ccccc2)no1 | 3.79%
79 | Cc1ccc(NC(=O)CSCC(=O)Nc2cccc(C)c2C)cc1 | 5.09%
80 | Cc1ccccc1NC(=O)NCc1cccnc1 | -3.12%
81 | Cc1cc(NC(=O)CCc2ccccc2)no1 | 9.14%
82 | Cc1ccc(C(C)C)c(OCC(=O)NN)c1 | 4.73%
83 | CC(NC(=O)c1ccccc1NC(=O)Cc1ccccc1)c1ccccc1 (stereo not shown) | 5.31%
84 | CCOc1cc(C)c(S(=O)(=O)Nc2cccnc2)cc1C | -1.72%
85 | CCN1C(=O)S/C(=C\c2ccc(N3CCOCC3)cc2C)C1=O | 1.64%
86 | Cc1c(C(=O)N2CCCC(C)C2)oc2ccccc12 (stereo not shown) | 3.21%
87 | CN1C(=O)C(=Cc2cc(Br)c(O)c(Br)c2)C(=O)N(C)C1=O | 10.4%
88 | Cn1c(=O)c2c(nc(Cl)n2CC(=O)N2CCCCC2)n(C)c1=O | -1.63%
89 | O=C(O)c1ccc(S(=O)(=O)c2ccc3c(c2)C(=O)N(c2ccc(O)cc2)C3=O)cc1 | -1.89%
90 | CC(C)Cn1cc(NC(=O)Nc2nccs2)c2ccccc2c1=O | -2.52%
91 | Cc1nn(C)c(C(=O)N(C)C23CC4CC(CC(C4)C2)C3)c1Br | -3.85%
92 | CC1(C)CC(=O)c2sc(NC(=O)c3ccc(Cl)c(Cl)c3)nc2C1 | -1.47%
93 | O=C(CSc1ncn(-c2ccccc2)n1)Nc1nc(-c2ccccc2)cs1 | 2.95%
94 | COC(=O)Nc1sc(C(=O)N(C)C)c(C)c1C(=O)OC | -1.1%
95 | COC(=O)CCCC[C@H]1SC[C@H]2NC(=O)N[C@@]21O | 2.22%
96 | O=C(c1ccccn1)c1conc1C(=O)c1cccs1 | 1.82%
97 | CC1=C(CCN(CCCN(C)C)CCCN(C)C)C(C)(C)CCC1 | -2.21%
98 | Cc1ccc(C)c(S(=O)(=O)Nc2cc(SCC(=O)O)c(O)c3ccccc23)c1 | -0.736%
99 | Fc1ccc(NCc2ccc(OCc3ccccc3)cc2)cc1 | -0.292%
100 | O=C1c2ccccc2C(=O)c2cc(S(=O)(=O)n3cnc4ccccc43)ccc21 | 2.94%
